In PubChem BioAssay (Tox21):
This list was built around the results that the source calls inconclusive (neither active nor inactive); the mix of calls is not that of the screen. Potencies of inconclusive entries are doubtful fits and often do not repeat. Some compounds were tested as several samples or in several runs, with calls that do not always agree. The source made the active and inactive calls. Calls come from the whole dose curve; as a rule, active = well fitted cell-killing curve with a large enough effect in the repeat runs (not every such curve was filed as active); inconclusive = weak or mixed curves, or effect the other way; inactive = no such curve, though single readings can be large or run the other way.
% is set by controls: 0 for no effect and ±100 for the full control effect; potency is the fitted concentration of half-maximal effect; tags give direction and shape of the fitted curve.

Experiment: qHTS assay to identify small molecule antagonists of the farnesoid-X-receptor (FXR) signaling pathway - cell viability counter screen (AID 743221); note: nearly all actives have a fitted effect of over 50% in size
Conditions: FXR-bla HEK293T viability, CellTiter-Glo luminescence, 16 h; activity change, negative = cytotoxicity: at 62.6 µM (top of the series) unless noted
Source text: National Center for Advancing Translational Sciences [NCATS]
NIH Chemical Genomics Center [NCGC]
U.S. Environmental Protection Agency [EPA]
National Institutes of Environmental Health Sciences [NIEHS]
National Toxicology Program [NTP]
U.S. Food and Drug Administration [FDA]
The farnesoid-X-receptor (FXR), a nuclear hormone receptor, is highly expressed in liver, intestine, kidney and adrenal cortex. Natural ligands of FXR are the bile acids (Cholic acid, Chenodeoxy cholic acid etc). FXR is an important regulator of diverse metabolic pathways, including the bile acid homeostasis, lipid and glucose metabolisms. FXR regulates the expression of target genes by binding either as a monomer or as a heterodimer with the retinoid X receptor (RXR). Numerous studies have reported that FXR exerts protective function during cholestasis, diabetes, liver regeneration, and cancer. To identify compounds that inhibit FXR signaling, GeneBLAzer FXR-UAS-bla HEK 293T cell line (Invitrogen, Carlsbad, CA) containing a beta-lactamase reporter gene under the control of a UAS response element was used to screen the Tox21 10K compound library. The cytotoxicity of the Tox21 compound library against the FXR-bla cell line was tested in parallel by measuring the cell viability using CellTiter-Glo assay in the same wells.
Tox21 Assay Protocol Summary:
FXR-bla cells were dispensed at 5000 cells/5uL/well in 1536-well black wall/clear bottom plates using a Multidrop Combi (Thermo Fisher Scientific, Waltham, MA) dispenser. After the assay plates were incubated at 37 C and 5% CO2 for 5 h, 23 nL of compounds dissolved in DMSO, positive controls or DMSO only was transferred to the assay plate by a Pintool station (Kalypsys, San Diego, CA), followed by addition of 1 uL Chenodeoxycholic acid (50 uM, final concentration in the wells). The assay plates were incubated at 37C for 16 h. After 1 uL of LiveBLAzerTM B/G FRET substrate was added using a Bioraptr Flying Reagent Dispenser (FRD) workstation (Beckman Coulter, Indianapolis, IN), the plates were incubated at room temperature for 2 h, and fluorescence intensity was measured by an Envision plate reader (PerkinElmer, Shelton, CT). For cell viability readout that measures cytotoxicity, 4uL/well of CellTiter-Glo reagent was added into the assay plates using a Bioraptr FRD. After 30 min incubation at room temperature, the luminescence intensity in the plates was measured using a ViewLux plate reader (PerkinElmer).
With `CC(C(=O)c1ccccc1)N(C)C` (stereo not given) the “activity change, negative = cytotoxicity” value was inactive: 9.2%.
For `O=C(O)c1nc(Cl)ccc1Cl`, the Potency was “inactive”.
In the case of `Nc1cccc(Cl)c1`, the Potency is reported as “inactive”.
With `CCCCOC(=O)c1ccccc1C(=O)O` the Potency was inconclusive: 61.6 µM [falling, single point].
With `COc1cc(C[C@@H](C)N)c(OC)cc1Br` the Potency was inconclusive: 55.9 µM [falling, partial curve].
In the case of `C[C@]12CC[C@H]3[C@@H](CC=C4C[C@@H](O)CC[C@@]43C)[C@@H]1CC[C@@H]2O`, the “activity change, negative = cytotoxicity” value is reported as inactive: 0.166%.
In the case of `COC(=O)Cc1ccccc1`, the “activity change, negative = cytotoxicity” value is reported as inactive: -0.666%.
In the case of `COS(=O)(=O)OC`, the Potency is reported as “inactive”.
With `CC(=O)[O-].CC(=O)[O-].CC(=O)[O-].[Sb+3]` the Potency was inconclusive: 8.16e-05 µM [falling, full curve, poor fit].
In the case of `COC(=O)COc1ccc(Cl)cc1Cl`, the Potency is reported as inconclusive: 21.9 µM [rising, partial curve].
With `COc1ccc(-c2ccccc2)cc1NNC(=O)OC(C)C` the Potency was inconclusive: 64.2 µM [falling, single point].
With `COC(=O)c1ccccc1S(=O)(=O)NC(=O)Nc1nc(C)cc(C)n1` the “activity change, negative = cytotoxicity” value was inactive: 20.6%.
With `C=CC=O` the “activity change, negative = cytotoxicity” value was inactive: 4.26% [at 81.1 µM].
For `CCNS(=O)(=O)C(F)(F)C(F)(F)C(F)(F)C(F)(F)C(F)(F)C(F)(F)C(F)(F)C(F)(F)F`, the “activity change, negative = cytotoxicity” value was inactive: -8%.
For `O=CNC(N1CCN(C(NC=O)C(Cl)(Cl)Cl)CC1)C(Cl)(Cl)Cl` (stereo not given), the Potency was inconclusive: 61.6 µM [rising, partial curve, poor fit].
In the case of `CCNc1nc(Cl)nc(NC(C)(C)C#N)n1`, the Potency is reported as “inactive”.
With `Cc1cc(-c2cc(C)c(N)c(C)c2)cc(C)c1N` the Potency was inconclusive: 4.29 µM [falling, full curve, poor fit].
For `N#CC1(N=NC2(C#N)CCCCC2)CCCCC1`, the “activity change, negative = cytotoxicity” value was inactive: -10.9%.
With `CCCCCl` the activity change, negative = cytotoxicity was inconclusive: 32.9% [at 81.1 µM].
In the case of `CN(N=O)C(N)=O`, the “activity change, negative = cytotoxicity” value is reported as inactive: -4.56%.
In the case of `CC1(C(=O)Nc2ccc(O)c(Cl)c2Cl)CCCCC1`, the Potency is reported as inconclusive: 54.9 µM [falling, partial curve, poor fit].
In the case of `O=c1oc2ccccc2c(O)c1C1CCCc2ccccc21` (stereo not given), the “activity change, negative = cytotoxicity” value is reported as inactive: -0.688%.
With `CC[n+]1c(-c2ccccc2)c2cc(N)ccc2c2ccc(N)cc21` the Potency was inconclusive: 8.67 µM [falling, partial curve, poor fit].
With `CCC12COCN1COC2` the Potency was “inactive”.
In the case of `CN(C)C(=O)Nc1cccc(C(F)(F)F)c1`, the Potency is reported as “inactive”.
In the case of `CCC/C=N/O`, the Potency is reported as inconclusive: 0.0149 µM [falling, full curve, poor fit].
For `c1ccc2nc(N3CCNCC3)ccc2c1`, the Potency was inconclusive: 33.5 µM [falling, single point].
In the case of `CC(Cl)C(=O)O` (stereo not given), the Potency is reported as inconclusive: 57.1 µM [falling, partial curve, poor fit].
In the case of `CC(Oc1cccc(Cl)c1)C(=O)O` (stereo not given), the Potency is reported as inconclusive: 0.389 µM [falling, full curve, poor fit].
With `O=[N+]([O-])CCO` the Potency was inconclusive: 23 µM [falling, single point].
For `O=[N+]([O-])c1ccccc1-c1ccccc1`, the “activity change, negative = cytotoxicity” value was inactive: 14%.
With `ClCC(Cl)CCl` the Potency was inconclusive: 0.692 µM [rising, partial curve, poor fit].
For `CCOP(=S)(OCC)SCSC(C)(C)C`, the Potency was “inactive”.
For `CC1=C(C(=O)Nc2ccccc2)S(=O)(=O)CCO1`, the Potency was inconclusive: 19.5 µM [rising, partial curve, poor fit].
With `CC(=O)NNc1ccccc1` the Potency was inconclusive: 6.12 µM [falling, full curve].
With `CCCCC(=O)Cl` the “activity change, negative = cytotoxicity” value was inactive: -0.167% [at 81.1 µM].
For `CCN(CC)C(C)C(=O)c1ccccc1` (stereo not given), the “activity change, negative = cytotoxicity” value was inactive: -1.98%.
In the case of `COc1cccc2c1cc([N+](=O)[O-])c1c(C(=O)O)cc3c(c12)OCO3`, the Potency is reported as inconclusive: 11 µM [falling, full curve].
With `O=NN1CCN(N=O)CC1` the “activity change, negative = cytotoxicity” value was inactive: 1.3%.
In the case of `CCCCn1cc[n+](C)c1.[Cl][Fe-]([Cl])([Cl])[Cl]`, the “activity change, negative = cytotoxicity” value is reported as inactive: 7.17%.
